# From PMC4336329 (PLoS ONE, 2015)
# About 2,200 (0.71%) of roughly 310,000 compounds showed an effect of 50% or more. Effects have a minus sign here. This is one part of the list.
# Target: human ether-à-go-go-related gene (hERG) potassium channel (human, UniProt Q12809)
# Test: primary screen, population patch clamp on CHO cells stably expressing hERG
# Sequence of human ether-à-go-go-related gene (hERG) potassium channel (Q12809 whole entry, looked up): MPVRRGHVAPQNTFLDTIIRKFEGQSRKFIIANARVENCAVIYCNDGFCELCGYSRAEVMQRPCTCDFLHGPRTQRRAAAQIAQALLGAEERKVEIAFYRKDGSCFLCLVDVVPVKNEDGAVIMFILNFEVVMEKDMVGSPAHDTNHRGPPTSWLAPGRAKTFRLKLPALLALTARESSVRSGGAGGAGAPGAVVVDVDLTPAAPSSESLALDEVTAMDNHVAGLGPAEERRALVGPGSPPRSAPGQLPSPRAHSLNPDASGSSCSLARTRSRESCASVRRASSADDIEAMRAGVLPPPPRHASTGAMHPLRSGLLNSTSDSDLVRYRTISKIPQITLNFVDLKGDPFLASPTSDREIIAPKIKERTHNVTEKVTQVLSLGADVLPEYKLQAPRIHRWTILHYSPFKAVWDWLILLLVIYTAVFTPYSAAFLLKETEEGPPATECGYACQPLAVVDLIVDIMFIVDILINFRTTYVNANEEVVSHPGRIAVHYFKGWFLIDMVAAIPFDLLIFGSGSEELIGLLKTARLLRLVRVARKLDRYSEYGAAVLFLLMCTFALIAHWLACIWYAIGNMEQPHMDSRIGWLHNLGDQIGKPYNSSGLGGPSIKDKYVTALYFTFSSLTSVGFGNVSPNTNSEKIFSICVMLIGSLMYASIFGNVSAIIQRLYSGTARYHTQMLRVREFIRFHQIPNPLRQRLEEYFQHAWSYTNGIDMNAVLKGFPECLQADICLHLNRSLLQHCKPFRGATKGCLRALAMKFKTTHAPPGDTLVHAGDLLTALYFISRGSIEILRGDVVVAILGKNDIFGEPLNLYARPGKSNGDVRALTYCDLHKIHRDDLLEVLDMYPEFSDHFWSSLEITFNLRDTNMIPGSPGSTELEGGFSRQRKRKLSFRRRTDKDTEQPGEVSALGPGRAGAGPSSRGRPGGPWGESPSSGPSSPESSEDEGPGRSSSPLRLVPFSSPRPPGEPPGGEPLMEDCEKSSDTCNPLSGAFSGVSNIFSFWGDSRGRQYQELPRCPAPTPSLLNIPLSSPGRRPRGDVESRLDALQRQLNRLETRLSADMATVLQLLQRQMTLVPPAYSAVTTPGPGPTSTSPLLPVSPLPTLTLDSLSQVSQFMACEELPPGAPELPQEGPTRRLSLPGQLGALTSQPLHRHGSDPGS
row,Compound,"hERG current change (%, negative = inhibition) at 1uM [%]"
1,COc1ccccc1OCC(=O)Nc1ccc2c(c1)n(C)c(=O)n2C,8.47
2,CCCCCCn1cc(C(=O)O)c(=O)c2cc(F)c(N3CCN(C(=O)OCC)CC3)cc21,15.1
3,Cc1ccc(C(=O)NCC(=O)OCC(=O)Nc2ccccc2[N+](=O)[O-])cc1,-18.3
4,CCOC(=O)c1cc(C)sc1NC(=O)CSc1nccn1C,-0.109
5,CCOc1ccc(CCNC(=O)c2c(C)noc2C)cc1OCC,-1.19
6,Cc1nc2ccccc2c(=O)n1-c1cc([N+](=O)[O-])cc([N+](=O)[O-])c1,12.7
7,COc1cc(NC(=O)Cn2ncc3c2-c2ccccc2OC3)cc(OC)c1OC,5.63
8,CCOC(=O)COc1c(OC)cc(Cl)cc1C1NC(=O)NC(C)=C1C(C)=O (stereo not shown),4.58
9,COC(=O)c1cc2ccccn2c2c(C(=O)OC)c(C(=O)OC)cc1-2,11.4
10,CC(C(=O)N(C)C1CCS(=O)(=O)C1)N1C(=O)/C(=C/c2ccco2)SC1=S (stereo not shown),4.79
11,O=C(Nc1nnc(-c2ccncc2)o1)C1CCCCC1,9.79
12,CCCC(=O)Nc1c(C(=O)OCC)[nH]c2ccccc12,14.9
13,CCOC(=O)c1c(NC(=O)N/N=C/c2ccc(O)c(OC)c2)sc(C(C)=O)c1C,9.99
14,CCC(C)Sc1nc(O)c(Cc2ccccc2)c(=O)[nH]1 (stereo not shown),8.96
15,CN1CCNC(=O)C1CC(=O)NCC1(c2ccccc2)CCCCC1 (stereo not shown),6.08
16,CCCCNc1nc2ccccc2n1CC(=O)Nc1c(C)cccc1CC,-2.16
17,Clc1ccccc1OCc1nc(-c2ccccn2)no1,7.12
18,Cc1ccc(Nc2nc(N)nc(CSc3nc4ccccc4s3)n2)cc1,12.8
19,CCOC(=O)c1cccc(NC(=O)CCn2nc(C)c(S(=O)(=O)N3CCCCC3)c2C)c1,2.64
20,O=C(N/N=C/c1coc2ccc(Cl)cc2c1=O)c1ccncc1,16.3
21,O=S(=O)(c1ccc(Br)cc1)N1CCN=C1SCc1cccnc1,-3.7
22,CCCNS(=O)(=O)c1ccc(CCC(=O)NCc2ccc3c(c2)OCO3)cc1,-16.8

row,Compound,"hERG current change (%, negative = inhibition) at 1uM [%]"
1,O=S(=O)(c1cc(Cl)ccc1Cl)N1CCNCC1,12
2,O=C(NC1(C(F)(F)F)C(=O)Nc2c1c(=O)[nH]c(=O)n2Cc1ccccc1)c1ccco1 (stereo not shown),0.54
3,COc1cccc(/C=C2\SC(=S)N(CCCC(=O)N3CCCCC3CCO)C2=O)c1 (stereo not shown),12.8
4,CCCOC1CCCN(C(=O)c2ccc(OC3CCN(Cc4ccccn4)CC3)cc2)C1 (stereo not shown),10.5
5,COc1ccccc1CN1CC(C(=O)NCCc2ccc(Cl)cc2)CC1=O (stereo not shown),10.8
6,CCN1CCN(CC2CC3C=CC2C3)CC1 (stereo not shown),17.5
7,CC(C)c1ccc(NC(=O)C2CCCN(S(=O)(=O)c3cnc[nH]3)C2)cc1 (stereo not shown),11.9
8,CCOC(=O)c1[nH]c(COC(=O)CCCOc2ccccc2)c(C(=O)OCC)c1C,6.2
9,O=C(C1CC1)N1c2ccccc2Sc2ccccc21,10.6
10,N#C/C(=C\c1c(N2CCN(Cc3ccccc3)CC2)nc2ccccn2c1=O)S(=O)(=O)c1ccccc1,9.53
11,C/C(=N\NC(=O)CSc1nc(C)cc(C)n1)c1ccc2c(c1)OCCO2,18.7
12,N/C(=N\OC(=O)Cc1ccc([N+](=O)[O-])cc1)c1cccc(Br)c1,9.26
13,CN1CCN(c2ccc(NC(=O)COc3ccccc3Cl)cc2)CC1,-8.01
14,O=C(CNC(=O)c1ccc(Cl)cc1)N/N=C/C=C/c1ccccc1,9.65
15,CCc1cc(C(=O)c2ccccc2OC)c(N)s1,9.14
16,CCOC(=O)c1ccc(NC(=S)NCCc2ccccc2)cc1,16.3
17,COc1ccc(OCc2nc3ccccc3n2C(C)C)cc1,8.75
18,Cc1ccc(C)c(S(=O)(=O)NCCOC(=O)Nc2sc(=S)n(C)c2C)c1,2.29
19,COc1cccc(/C(O)=C2/C(=O)C(=O)N(Cc3ccco3)C2c2ccncc2)c1 (stereo not shown),13.8
20,O=C(Nc1ccc(S(=O)(=O)N2CCOCC2)cc1)c1ccc2c(c1)OCO2,10.5
21,CC(CN1CCOCC1)OC(=O)c1ccccc1Cl.Cl (stereo not shown),16.7
22,Cc1cccc(C)c1NC(=O)Cn1c(=O)n(CCCC(=O)NC2CCN(Cc3ccccc3)CC2)c(=O)c2ccccc21,-16

row,Compound,"hERG current change (%, negative = inhibition) at 1uM [%]"
1,CC1CCN(C(=O)c2ccc(NS(=O)(=O)c3cccc4cccnc34)cc2)CC1,3.61
2,COc1ccc2c(c1)CCc1cc(C(=O)O)sc1-2,-3.57
3,CCOc1ccc(N(CC(=O)NC2CCCC2)C(=O)CCC(=O)Nc2nccs2)cc1,8.7
4,CC(C)(C)SCCNC(=O)c1ccc(NS(C)(=O)=O)cc1,-0.0459
5,O=C(O)CCC(=O)NNC(=O)CCCOc1ccc(Cl)cc1Cl,0.677
6,CCOC(=O)c1c(NC(=O)C2C3C=CC(C3)C2C(=O)O)sc2c1CCC(CC)C2 (stereo not shown),14
7,CCOc1ccc(NC(=O)N2CCC(C(=O)c3ccc(F)cc3)CC2)cc1,5.78
8,CN(CC(=O)Nc1ccc(F)cc1)CC(=O)N1CCCCC1,1.14
9,Cc1ccccc1OCc1nc2ccccc2c(=O)n1N,7.23
10,CO/N=C(\C(=O)N[C@@H]1C(=O)N2C(C(=O)[O-])=C(COC(C)=O)CS[C@H]12)c1csc(N)n1.[Na+],17.4
11,Cc1cc(C)nc(SCC(=O)Nc2ccc(S(=O)(=O)Nc3nccs3)cc2)n1,4.86
12,O=C(COC(=O)c1ccc2c(c1)S(=O)(=O)N=C1CCCCCN12)NCCc1ccc(F)cc1,8.96
13,CN(C)CCn1cnc2c1c(=O)n(C)c(=O)n2C.Cl,13.1
14,C(=N\Nc1nc(N2CCCCCC2)nc(N2CCCCCC2)n1)/c1ccccc1,6.09
15,Nc1nc(-c2ccc(Cl)cc2)nn1C(=O)c1cccnc1,-3.36
16,Cc1ccc(S(=O)(=O)Nc2ccc(N3CCOCC3)cc2)cc1,19
17,Cc1ccc(Cc2c(C)nc3nc(SCC(=O)NCCCN4CCCCCC4)nn3c2C)cc1,-15
18,CC1(C)CC(=O)c2sc(NS(=O)(=O)c3ccc(Cl)cc3)nc2C1,16.1
19,CCc1ccc(NC(=O)C2CCCN2S(=O)(=O)c2ccc3c(c2)C(C)(C)C(=O)N3C)cc1 (stereo not shown),-14.6
20,O=C(CSc1nnc(-c2cccnc2)o1)OC1CCCCC1,10.6
21,CCCC(=O)NC(c1ccccc1OC)c1ccc2cccnc2c1O (stereo not shown),4.77
22,Fc1ccc(CN2CCCCCC2)c(F)c1,6.75

row,Compound,"hERG current change (%, negative = inhibition) at 1uM [%]"
1,COc1ccccc1NC(=O)c1cc([N+](=O)[O-])ccc1NCCN1C(=O)CCC1=O,15.9
2,O=C1N/C(=C/c2cccs2)C(=O)N1Cc1ccc(Br)cc1,1.96
3,O=C(NCCCCc1ccccc1)c1ccccc1Br,8.13
4,CCOC(=O)C1=C(COC(=O)CSc2ccc(Br)cc2)NC(=O)NC1C (stereo not shown),18.7
5,Cc1c(NC(=O)C23CC4CC(CC(C)(C4)C2)C3)c(=O)n(-c2ccccc2)n1C,13.5
6,C=CCNC(=O)c1ccc(NC(=O)CC2SC(N3CCCC3)=NC2=O)cc1 (stereo not shown),10.9
7,COc1ccccc1CO/N=C/NC(=O)c1c(OC)ccnc1Oc1ccc(F)cc1,-1.73
8,CCN(CC)S(=O)(=O)c1ccc2nnn(O)c2c1,9.18
9,C=CCn1c(SCC(=O)Nc2ccccc2F)nnc1C(C)NC(=O)c1ccccc1F (stereo not shown),6.76
10,O=S(=O)(c1ccc(Cl)cc1)N1CCN(Cc2c[nH]c3ccccc23)CC1,2.9
11,COc1ccc(-c2nc3ccccn3c2NCc2ccc3c(c2)OCO3)cc1,-25.8
12,CN(C)S(=O)(=O)c1ccc(NC(=O)CN2CCCc3ccccc32)cc1,1.08
13,O=C(Nc1nc(-c2ccccc2)cs1)c1ccc(S(=O)(=O)N2CCc3ccccc32)cc1,7.7
14,COCCN(C(=O)CN1CCCc2ccccc21)c1c(N)n(Cc2ccccc2)c(=O)[nH]c1=O,-6.7
15,CCOC(=O)C1=C(COC(=O)CCOc2ccc(OCC)cc2)NC(=O)NC1C (stereo not shown),2.97
16,COC(=O)C1=C(C)N(CCCC(=O)O)C(=O)NC1c1ccc(Br)cc1 (stereo not shown),-15
17,O=C(Nc1cccc(NC(=O)c2cccs2)c1)c1ccco1,2.87
18,Cn1nc(-c2ccccc2)cc1NC(=O)C1CCCCC1,5.36
19,Cc1noc(C)c1CSc1nc2sc(C)c(C)c2c(=O)n1C1CCCC1,12.8
20,CCCS(=O)(=O)N1CCC(C(=O)NCc2ccco2)CC1,13.6
21,CCOc1ccc(-c2ccc(SCc3ccccn3)nn2)cc1,-4.03
22,COc1ccc(CCNC(=O)c2ccccc2C(=O)NCCc2ccc(OC)c(OC)c2)cc1OC,11.2
